# Test results: PubChem BioAssay AID485344 (National Center for Advancing Translational Sciences (NCATS), 2010)
# Where “and” joins values, the source holds several entries; their conditions need not be identical. Identical values can stand only once. Among all 340,000 compounds or so, about 6,900 (2%) were called active. Rule as the data show it: active = inhibition above about 30%; inactive = below that, where a call was filed. Only a part is listed here, and it is no random draw. The source gives no active or inactive call for entries shown without one.
# Molecular target: D(2) dopamine receptor (Homo sapiens) (UniProt P14416)
# Chain of UniProt P14416 (P14416 whole entry, looked up): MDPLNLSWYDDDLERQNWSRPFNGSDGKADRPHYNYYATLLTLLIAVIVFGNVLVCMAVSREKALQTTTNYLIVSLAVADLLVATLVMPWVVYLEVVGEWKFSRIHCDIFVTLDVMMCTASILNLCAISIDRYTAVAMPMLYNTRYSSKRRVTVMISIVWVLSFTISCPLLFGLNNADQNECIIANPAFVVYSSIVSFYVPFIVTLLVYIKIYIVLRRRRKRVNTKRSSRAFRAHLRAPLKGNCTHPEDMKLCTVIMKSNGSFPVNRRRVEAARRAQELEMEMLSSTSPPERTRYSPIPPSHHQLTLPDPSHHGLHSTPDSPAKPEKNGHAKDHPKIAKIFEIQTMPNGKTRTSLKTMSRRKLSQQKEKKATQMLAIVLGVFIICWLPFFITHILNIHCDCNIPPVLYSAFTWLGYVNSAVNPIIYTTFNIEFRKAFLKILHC
# Assay: HTS Assay for Allosteric Antagonists of the Human D2 Dopamine Receptor: Primary Screen for Antagonists; also: 0% is about no effect
# Details: HEK293 TREx D2 cells, calcium flux, dopamine EC80; at 10 µM; stronger effect = higher value
# Procedure, shortened: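 Calcium flux kinetic readout in an inducible HEK293 TREx D2 line plated overnight at 30 C. After 180 s compound exposure, an EC80 dopamine challenge follows with another 180 s kinetic read to detect antagonism.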
row,Compound,inhibition
1,CC(C)CCNC(=O)c1ccc2c(c1)NC(=O)C(C(C)C)N2 (stereo not given),-21.7%
2,Cc1c(C)n(Cc2ccccc2)c2ccc(C(=O)N3CCN(c4ccc(F)cc4)CC3)cc12,-2.61%
3,Cc1ccc(NC(=O)N2CCCC2C(=O)NCC2CCCCC2)cc1 (stereo not given),active: 35.3%
4,CCN(CC)S(=O)(=O)c1ccc2c(c1)N(CC(=O)N1CCN(c3ccc(OC)cc3)CC1)C(=O)CO2,9.37%
5,Cn1cnc(S(=O)(=O)N2CCCC(C(=O)NCc3ccc(Cl)cc3)C2)c1 (stereo not given),-19.2%
6,Cc1ccccc1Nc1c(-c2cccc(Cl)c2)nc2ncccn12,-1.08%
7,CCn1c2ccccc2c2cc(CN3CCN(Cc4cc(OC)c(O)c(OC)c4)CC3)ccc21,-7.59%
8,Cn1nnc(NC(=S)NC(=O)c2cc(Cl)ccc2Cl)n1,active: 30.6%
9,Cc1ccc(C)c(NC(=O)Cn2nc(C)c3nn(-c4ccc(Cl)cc4)c(C)c3c2=O)c1,21.7%
10,Cc1ccc(NC(=O)c2sc3ncn(Cc4cccc(F)c4)c(=O)c3c2C)c(Br)c1,8.53%
11,O=C(Nc1cccc(Cl)c1Cl)c1ccc2c(c1)N(Cc1cccc(Cl)c1)C(=O)c1ccccc1S2=O (stereo not given),13%
12,COc1cc2[nH]c(=O)n(Cc3ccc(C(=O)N4CCN(c5ccc(Cl)cc5)CC4)cc3)c(=O)c2cc1OC,-7.37%
13,CCOc1ccccc1NC(=O)CCCc1nc(-c2ccccc2Cl)no1,7.62%
14,COc1ccc(CNC(=O)CCS(=O)(=O)c2cc(Br)cc3c2N(C(C)=O)C(C)C3)cc1 (stereo not given),-25.3%
15,CCc1cccc(NC(=O)CSc2nncn3c2cc2sccc23)c1,-5.87%
16,CCOc1ccc(CCNC(=O)c2cc3c(=O)n(CC)c4ccccc4c3s2)cc1OCC,-25.9%
17,CCCc1nnc(NC(=O)c2cc(=O)c3ccccc3o2)s1,11.8%
18,CCOC(=O)N1CCC(N2CCCC(C(=O)c3cccc(OC)c3)C2)CC1 (stereo not given),active: 40.1%
19,CCOC(=O)c1c(C)n(-c2ccccc2)c2ccc(OC(=O)COc3ccccc3)cc12,-6.73%
20,COc1ccc(N2CCN(C(=O)C3CCCN(C(=O)c4cc5sccc5n4C)C3)CC2)cc1 (stereo not given),-4.04%
21,COc1ccc(C)cc1NC(=O)c1cc(S(=O)(=O)N2CCOCC2)cn1C,-15%
22,O=C(CSc1nc(=O)[nH]c2c1CCCC2)NCc1ccccc1Cl,0.98%
23,CC1=C(C(=O)Nc2cccnc2)C(c2cccc(F)c2)n2nc(SCc3ccccc3F)nc2N1 (stereo not given),18.5%
24,CCNC(=O)c1c(NC(=O)Cc2coc3ccc(CC)cc23)sc2c1CCCC2,-4.35%

row,Compound,inhibition
1,CC(=C/c1ccccc1)/C=N/NC(=O)c1cc(C)oc1C,active: 36.9%
2,COc1cccc(C2C(C(=O)Nc3ccc(Cl)cc3)=C(C)Nc3nc4ccccc4n32)c1OC (stereo not given),3.51%
3,CC(=O)N1CCCc2cc(S(=O)(=O)N3CCN(c4ccccc4F)CC3)ccc21,-21.1%
4,CC(C)(C)C(=O)OCc1nc(-c2ccc(O)c(O)c2)cs1,active: 93.7%
5,CCCCNC(=O)c1c(-c2ccccc2)c(-c2ccccc2)nn(C)c1=O,-21.9%
6,Cc1ccc2c(c1)N(C(=O)N1CCC(C(=O)NCc3ccccc3C)CC1)CC(C)O2 (stereo not given),-18.8%
7,Cc1nc2sccn2c(=O)c1CCN1CCC(=C(c2ccccc2)c2ccc(F)cc2)CC1,active: 73.5%
8,CC1CCCCN1C(=O)NC12CC3CC(CC(C3)C1)C2 (stereo not given),active: 33.7%
9,CCNC(=O)c1ccc2c(c1)nc1n2CCCCC1,-22.2%
10,Cc1c(CNC2CCCCC2)c(C(=O)O)c(C)n1Cc1ccccc1F,-2.05%
11,Cc1ccccc1OCc1nc2c3cnn(-c4cccc(F)c4)c3ncn2n1,0.957%
12,O=C(Cn1cc(C(=O)C(F)(F)F)c2ccccc21)N1CCCCCC1,-0.6%
13,CC1(C)N=C(SCc2ccc(F)cc2)c2ccccc2N1,10.8%
14,O=C(COc1ccc2ccccc2c1)NC1CC(=O)N(c2ccc(F)cc2)C1 (stereo not given),-11.5%
15,Cc1ccccc1CN1c2ccccc2-c2nc(SCC(=O)c3ccccc3)ncc2S1(=O)=O,3.98%
16,CC1CCCCN1CCCNC(=O)c1cc(Sc2cccc(Cl)c2)nc2ccccc12 (stereo not given),24.3%
17,CCOc1ccccc1NC1(c2ccccc2)C(=O)c2ccccc2C1=O,8.06%
18,CCn1c(=O)n(-c2ccc3c(c2)OCO3)c2nc(-c3ccc(C(C)C)cc3)nc(C(N)=O)c21,3.49%
19,O=C(Nc1cccc(Cl)c1)C1CCCN(c2nn3cc(-c4ccc(F)cc4)nc3s2)C1 (stereo not given),-3.69%
20,COc1ccc(OC)c(NC(=O)Cn2c(=O)c3cccn3c3ccccc32)c1,-26.7%
21,CCOc1ccc2c(c1)c(=O)c(C(=O)c1ccc(CC)cc1)cn2CC(=O)Nc1ccccc1OC,24.4%
22,COC(=O)COc1cccc2c(=O)n(CC(=O)N3CCCc4ccccc43)ccc12,active: 30.9%
23,Cc1ccc(S(=O)(=O)c2cn(CC(=O)Nc3cccc(Cl)c3)c3ccccc3c2=O)cc1,-1.96%
24,CCOc1ccc(C(=O)Nc2cc(-c3nc4cc(OC)ccc4o3)ccc2C)cc1[N+](=O)[O-],6.32%

row,Compound,inhibition
1,Cc1ccc(Cl)cc1NC(=O)CSc1nc2ccccc2c2nc(-c3ccccc3)nn12,6.97%
2,CCOC(=O)C1CCN(C(=O)c2nn(-c3ccc(OC)c(Cl)c3)c(=O)c3c2c2ccccc2n3C)CC1,-14.5%
3,O=C(CN1CCC(O)(c2ccccc2F)CC1)NCCc1c[nH]c2ccccc12,active: 86%
4,O=C(CCn1c(=O)c2cccn2c2cccnc21)NCc1ccccc1Cl,7.81%
5,O=C(CSc1nc2ncccc2[nH]1)Nc1cc(F)ccc1F,-0.863%
6,C=CCc1cccc(/C=N/NC(=O)C(C)Nc2cccc(C)c2)c1O (stereo not given),active: 31%
7,COc1cccc(N2CCN(C(=O)C3CCCN(S(=O)(=O)c4cccc5nsnc45)C3)CC2)c1 (stereo not given),-2.76%
8,O=C(NCC(c1cccnc1)N1CCN(c2ccccc2F)CC1)C(=O)Nc1ccc(F)cc1F (stereo not given),-15.6%
9,CCOc1ccc(C(=O)c2cn(CC(=O)Nc3ccc4c(c3)OCO4)c3ccc(OC)cc3c2=O)cc1,-8.29%
10,CCOc1cc(CNC(=O)c2ccccc2NC(=O)c2nsc3ccccc23)ccc1OC,1.77%
11,Cc1ccc(C(=O)N(Cc2ccco2)Cc2ccco2)cc1,-14.2%
12,CCOc1cccc(CC(=O)NCc2ccc3c(c2)CCN3C(=O)c2ccc(F)cc2)c1OCC,-23.8%
13,CCOc1ccc(NC(=O)Cn2cc(C(=O)c3cccs3)c3ccccc32)cc1,1.9%
14,CC1(C)S[C@@H]2[C@H](NC(=O)C(C(=O)O)c3ccccc3)C(=O)N2[C@H]1C(=O)O (stereo not given in full),active: 32.8%
15,O=C(Cn1c(-c2cccs2)cc2ccccc21)N1CCN(c2ccccc2F)CC1,5.03%
16,COc1ccc(NC(=O)CSC2=Nc3ccccc3C3=NC(CC(=O)NCc4ccco4)C(=O)N23)cc1 (stereo not given),-17.9%
17,O=C(CSc1nnc(-c2ccncc2)n1-c1ccccc1)Nc1ccc(Cl)c(Cl)c1,-14.8%
18,Clc1ccc(CCNc2nc3ccccc3c3nc(-c4ccccc4)nn23)cc1,-6.05%
19,COc1ccc2c(CC(=O)Nc3ccc(C)cc3)coc2c1,2.35%
20,CCC(CC)C(=O)Nc1ccc2nc(SCc3ccccc3)sc2c1,15.1%
21,CS(=O)(=O)c1ncc(Cl)c(C(=O)Nc2c(C(=O)Nc3ccccc3)oc3ccccc23)n1,-1.04%
22,Cc1cccc(Nc2ncc(NC(=O)c3cccc(F)c3)c(Nc3cccc(C)c3)n2)c1,16.2%
23,COc1ccc(CN(C)c2ccc(-c3nc(-c4ccccc4)no3)cc2[N+](=O)[O-])cc1,5.55%
24,COc1cccc(CCNC(=O)c2cnc3sc(N4CCCCCC4)nn3c2=O)c1,1.47%

row,Compound,inhibition
1,O=C(Nc1ccc2oc(-c3cccnc3)nc2c1)c1ccc(-c2cccc(Cl)c2)o1,20.5%
2,COc1cc(NC(=O)CC2C(=O)N(c3cccc(C)c3)C(=O)N2Cc2ccco2)cc(OC)c1 (stereo not given),-2.04%
3,COc1ccc(S(=O)(=O)c2c(Nc3c(C)cccc3C)sc(C(=O)c3ccc4c(c3)OCO4)c2N)cc1,16.6%
4,Cc1ccc(-n2nc3c(=O)n(CC(=O)NC(C)C)nc(C)c3c2C)cc1,8.62%
5,CCOc1ccc(CNC(=O)c2ccc3c(c2)N(CC)CCS3)cc1,0.966% and active: 60.9%
6,CCCCOc1ccc(C(=O)NCCc2sc(-c3ccc(OC)c(OC)c3)nc2C)cc1,-3.18%
7,O=C(Nc1cccc(O)c1)c1cc2nc(-c3ccc(Br)cc3)cc(C(F)(F)F)n2n1,-17.2%
8,COc1ccc(N2CCN(C(=O)CSc3c4c(nc5ccc(Cl)cc35)CCCC4)CC2)cc1,-19.1%
9,Cc1cccc(N2CCN(S(=O)(=O)c3ccc4c(c3)C(C(C)C)C(=O)N4)CC2)c1C (stereo not given),-10.2%
10,Cc1ccc(-c2nnc(SCC(=O)c3ccc(Cl)cc3)n2-c2ccccc2)cc1,9.15%
11,COc1cccc(N(Cc2nnc3n2CCCCC3)C(=O)Nc2ccccc2)c1,-5.83%
12,Cc1nc2nc(NC(=O)c3ccc(C(C)(C)C)cc3)[nH]n2c(=O)c1Cl,7.96%
13,Cc1oc(-c2ccccc2F)nc1CSCC(=O)N1CCN(c2ccccc2)CC1,22.1%
14,CCOc1ccc(CCNC(=O)Cn2c(-c3cccs3)cc3cc(F)ccc32)cc1OCC,-13.7%
15,CCCc1cc(N2CCN(c3ccccc3)CC2)n2cnnc2n1,-16.2%
16,CCc1ccccc1NCc1nnc2n1CCCCC2,20.2%
17,Cn1c(=NC(=O)c2ccc(S(=O)(=O)N3CCCC3)cc2)sc2cc(F)ccc21,-25.6%
18,O=C1COc2cc(S(=O)(=O)CCC(=O)N3CCN(c4ccccc4F)CC3)c(Cl)cc2N1,-3.82%
19,Cc1ccccc1CNc1nc(N(C)C)nc2c1cnn2C,-4.37%
20,Cc1ccc(NC(=O)C2CCN(S(=O)(=O)c3ccc4[nH]c(=O)ccc4c3)CC2)cc1C,16.3%
21,Cc1cccn2c(Nc3ccccc3)c(-c3cccs3)nc12,-0.455%
22,COc1ccccc1NC(=O)CSc1nc2nccnc2c(=O)n1CCc1c[nH]c2ccccc12,6.19%
23,CSc1ccc(S(=O)(=O)NCC(=O)OCC(=O)NCCc2ccccc2)cc1[N+](=O)[O-],active: 33.2%
